Measured values: PubChem BioAssay AID1956 (SRMLSC, 2009)
Some of the results follow. These are further read-outs of the screen, such as a control signal, another cell line or another target. No call is given for them.

Assay: compounds boosting herpes simplex virus growth – fold increase, host cell viability (AID 1956); also: tested in PC3 cells
Details: HSV replication augmentation in cells; fold increase: measured here: primary screen fold increase 10 uM, at 10 µM, stronger effect = higher value; viability: measured here: host cell viability series, at 25 µM, stronger effect = lower value

| SMILES | fold increase | viability [%] |
| --- | --- | --- |
| COCCCNC(=O)/C(C#N)=c1\s/c(=C\c2ccccc2OC(F)F)c(=O)n1CCCOC | 1.66 | 90.6 |
| CC1=[N+](C)c2c(ccc3cccnc23)C1(C)C | 1.35 | 62.9 |
| CCN(CC)c1ccc2cc(-c3nc4ccccc4n3C)c(=O)oc2c1 | 1.49 | 38 |
| N/C(=N\OC(=O)Cc1ccccc1)c1cccnc1 | 1.53 | 100 |
| CN1Cc2sc(N)c(C#N)c2CC1(C)C | 1.68 | 95.1 |
| Cc1ccc(C2(c3noc(CN(C)Cc4cnn(C)c4)n3)CCCC2)cc1 | 1.71 | 95.7 |
| CC(=O)c1cc(O)c2ccccc2c1O | 1.54 | – |
| CN1/C(=C\C=N\NC(=O)c2cccnc2)C(C)(C)c2ccccc21 | 1.4 | 86.2 |
| COc1ccccc1N(CC(=O)N/N=C/c1ccccc1C(=O)O)S(C)(=O)=O | 1.41 | 96.7 |
| O=C1c2cccc3c(N4CCCCC4)ccc(c23)C(=O)N1c1ccc(O)cc1 | 9.55 | – |
| CCN(c1ccccc1)c1cc(C)nc2ncnn12 | 1.39 | 97.4 |
| Cc1nn2c(c1-c1ccccc1)N=C(c1ccco1)CC2c1ccccc1 (stereo not given) | 1.32 | 97.5 |
| COCCN(CCOC)C(=O)c1cc2c(=O)n3ccccc3nc2s1 | 1.33 | 97.5 |
| COCCCNC(=O)c1ccc(CS(=O)(=O)c2ccc(Br)cc2)o1 | 1.32 | 96.2 |
| CN1/C(=C\C=C2/SC(=S)NC2=O)C(C)(C)c2ccccc21 | 8.96 | 36.6 |
| COc1ccc2nc(N3C(=O)/C(=C/c4ccccc4)NC3=S)sc2c1 | 1.65 | – |
| CCOC(=O)CN1C=C(c2ccc3ccccc3n2)C(C[N+](=O)[O-])c2ccccc21 (stereo not given) | 3.94 | 92.7 |
| CCOC(=O)CC1C(=O)NCCN1c1nc2c(C)cccn2c(=O)c1/C=C1\SC(=S)N(CC(C)C)C1=O (stereo not given) | 8.04 | – |
| CCOC(=O)C1C(=O)C=C(/C=C/c2ccc(N(C)C)cc2)CC1c1ccccc1 (stereo not given) | 10.2 | – |
| CCOc1cc(/C=C2\SC(=S)N(C(C(=O)O)c3ccccc3)C2=O)ccc1O (stereo not given) | 4.6 | – |
| Oc1ccc(C=Nc2ccc3ncccc3c2)c(O)c1 | 1.7 | 100 |
| N#CC1(C#N)C2=C(CCCC2)NC(c2ccccc2)C1(C#N)C#N (stereo not given) | 1.46 | 89 |
| O=C(O)C(=O)/C(=C\c1ccc([N+](=O)[O-])cc1)c1ccc2ccccc2n1 | 1.33 | 97.8 |
| CN(C)c1ccc(/C=C/c2nc3ccccc3s2)cc1 | 1.35 | 63.6 |

| SMILES | fold increase | viability [%] |
| --- | --- | --- |
| COc1cc(/C=C(\C#N)c2nc(-c3cc4ccccc4oc3=O)cs2)ccc1O | 4.01 | 50.4 |
| Cc1nc2ccccc2n1C1CC(=O)N(N(C)C)C1=O (stereo not given) | 1.43 | 99.9 |
| CCCN1C(=O)/C(=C/c2c(NCCCOCC)nc3c(C)cccn3c2=O)SC1=S | 1.91 | – |
| COc1ccccc1N1C(=O)C2C(C(=O)c3ccccc3)=NN(c3ccccc3)C2C1=O (stereo not given) | 1.69 | 97.2 |
| N#CC1=C(N)N2C(=C(C#N)C1c1ccc(Br)cc1)Nc1ccccc12 (stereo not given) | 1.63 | 27.5 |
| CCCCN(C(=O)/C=C/c1ccco1)c1c(N)n(Cc2ccccc2)c(=O)[nH]c1=O | 1.58 | 95.8 |
| CN1C=CC2=C(C#N)C(N)C(C#N)(C#N)[C@H](c3ccccc3)[C@H]2C1 (stereo not given in full) | 1.4 | 93.6 |
| Oc1sc(C=Nc2ccccc2)c2ccccc12 | 1.38 | 81.8 |
| O=C1/C(=C\c2ccco2)NC(=S)N1c1ccccc1 | 1.5 | 96.6 |
| CCNc1c2c3c(cccc3n(C)c1=O)C(=O)c1ccccc1-2 | 18.5 | 76.2 |
| O=C(N/N=C/c1cc(Cl)cc([N+](=O)[O-])c1O)c1ccccc1NS(=O)(=O)c1cccs1 | 1.38 | 94 |
| Cc1cc(C)n(CCN(C)C(=O)CCc2nnc(-c3ccc4c(c3)OCO4)o2)n1 | 1.34 | 94.2 |
| CCN(CC)c1ccc(C(=O)OCc2cc(=O)oc3cc(O)ccc23)cc1 | 1.17 | – |
| N#C/C(=C\c1ccc(OC(=O)c2cccs2)cc1)c1nc2ccccc2[nH]1 | 1.4 | 94 |
| O=C1c2ccccc2NC(c2ccc(Cl)cc2Cl)N1O (stereo not given) | 1.19 | – |
| COC(=O)c1cc2n3ccccc3c(C)c(-c3ccccc3)c-2c1C(=O)OC | 1.1 | 97.4 |
| CCN(CC)CC(=O)Nc1cc(N(C)C)nc2ccccc12 | 1.34 | 98.1 |
| CC(=O)N/N=C/c1cc(C(C)C)cc(/C=N/NC(C)=O)c1O | 6.33 | 103 |
| CC(C)N1CCc2c(sc(NC(=S)NC(=O)c3ccccc3)c2C#N)C1 | 2.33 | 95.5 |
| CN(C)c1ccc(/C=C/c2cc[n+](C)cc2)cc1 | 2.3 | 17.1 |
| Cc1ccc(OCC(=O)N/N=C\c2ccc(-c3cccc(C(=O)O)c3)o2)c(C)c1 | 1.63 | 94.3 |
| O=C1CN(c2ccccc2F)C(=O)CN1c1ccccc1F | 1.34 | 102 |
| Cn1c(=O)c(NC2CCCCC2)c2c3c(cccc31)C(=O)c1ccccc1-2 | 8.65 | 92.8 |
| CC(=O)Cc1cc(O)c2ccccc2c1OC(=O)c1ccc(Br)cc1 | 1.96 | 90.5 |

| SMILES | fold increase | viability [%] |
| --- | --- | --- |
| CCC(OC(=O)CC1Sc2ccccc2NC1=O)C(=O)NCC1CCCO1 (stereo not given) | 1.32 | 105 |
| COc1cc(SC)ccc1C(=O)Nc1ccc(S(=O)(=O)N2CCCC2)cc1 | 1.08 | – |
| CCOC(=O)C1=C(O)c2ccccc2C(=O)/C1=C\c1ccc(CC)cc1 | 1.54 | – |
| CN(C)c1ccc(/C=C2\SC(=O)N(CC(O)Cn3c4ccccc4c4ccccc43)C2=O)cc1 (stereo not given) | 1.62 | – |
| C/C(=N\NC(=O)c1c(Cl)c(C)nn1C)c1cccc(NC(=O)COc2ccccc2)c1 | 1.42 | – |
| CCOC(=O)C1C(=O)CC(C)(O)C(C(=O)OCC)C1c1cccs1 (stereo not given) | 1.35 | 97.7 |
| COc1ccccc1N1CCN(C(=O)c2ccc3c(Cl)c4c(nc3c2)CCCC4)CC1 | 1.32 | – |
| CCOC(=O)COc1ccc(S(=O)(=O)Nc2ccc(C)cc2)cc1 | 1.36 | 53.6 |
| O=C(O)c1cc(Cl)c(Cl)cc1C(=O)Nc1cccc2ncccc12 | 1.51 | 93.2 |
| O=C/C(=C\Nc1ccccn1)c1nc2cc(Cl)ccc2o1 | 1.34 | 95.7 |
| Brc1ccc(-c2cn3nc4c(nc3n2)CCCC4)cc1 | 1.4 | 93.5 |
| N#Cc1c(Cn2cncn2)nc(=O)n(-c2ccccc2)c1N | 1.48 | 104 |
| COc1ccc(C(=O)N/N=C/c2sc3ccccc3c2O)cc1 | 1.37 | 8.64 |
| Oc1c(Cl)cc(Cl)cc1C=Nc1ccccc1N1CCCC1 | 1.33 | 103 |
| COCCCn1c(=O)/c(=C\c2ccccc2OC(C)C)s/c1=C(/C#N)C(=O)Nc1ccc(C(=O)O)cc1 | 1.65 | 101 |
| COc1ccc(CNC(=O)/C(C#N)=C2\N=C(NC(=O)c3cccs3)c3ccccc32)cc1 | 1.37 | 95.2 |
| O=C(COC(=O)c1cccnc1)Nc1ccc2c(c1)OCO2 | 1.41 | 92.9 |
| Cc1cc(/C=N/NC(N)=S)c(O)c(/C=N/NC(N)=S)c1 | 5.59 | 87.2 |
| O=C(O)COCC(=O)Nc1ccccc1-c1ccccc1 | 1.43 | 93.8 |
| CCOc1ccc(N2C(=O)C3Sc4[nH]c(=O)sc4C(/C=C/c4ccccc4)C3C2=O)cc1 (stereo not given) | 1.6 | – |
| O=C(O)c1ccccc1C1=Nc2ccc(O)cc2Oc2cc(O)ccc21 | 2.03 | 99.6 |
| O=C(CC1SC(=Nc2ccc(O)cc2)NC1=O)Nc1ccccc1 (stereo not given) | 1.35 | 87.1 |
| CCOC(=O)c1ccc(NC(=O)COc2cc(=O)n(CC)c3ccccc23)cc1 | 1.35 | 95.6 |
| O=c1[nH]c2ccc(Cl)cc2c(-c2ccccc2)c1SC(=S)N1CCCCC1 | 1.34 | – |

| SMILES | fold increase | viability [%] |
| --- | --- | --- |
| Cn1cccc1/C=C1\CCC/C(=C\c2cccn2C)C1=O | 4.16 | 95.2 |
| CC(=O)NS(=O)(=O)c1ccc(Nc2ccc([N+](=O)[O-])c3nonc23)cc1 | 1.33 | 93.4 |
| O=C(O)CC/C(=N/NC(=O)CNC(=O)Cc1ccccc1)c1ccccc1 | 1.33 | 98.2 |
| CCOC(=O)c1c(/N=C/c2ccc(O)cc2O)sc2c1CCC2 | 2.42 | 101 |
| CC(=O)Oc1cc2c(cc1Cl)C1(CC(c3ccccc3Cl)O2)CC(C)(C)NC(=S)N1 (stereo not given) | 1.4 | – |
| O=c1c[n+]([O-])c2ccccc2n1OCc1c(F)cccc1F | 1.28 | 96.2 |
| Cc1[nH]c2ccccc2c1/C=N/Nc1ccc([N+](=O)[O-])cc1 | 1.79 | 87.5 |
| CS(=O)(=O)N(CC(=O)N1CCC(C(N)=O)CC1)c1ccc(Cl)c(C(F)(F)F)c1 | 1.36 | 92.5 |
| CNCCCNCc1ccc(SC)cc1 | 1.39 | – |
| CC(=O)C1=C(C)NC(SCC(=O)c2ccc(Cl)cc2)=C(C#N)C1c1ccco1 (stereo not given) | 1.37 | 72.8 |
| COc1cc(/C=C2\SC(=S)N(NS(=O)(=O)c3ccccc3)C2=O)ccc1O | 7.91 | 95.1 |
| COC(=O)C1=C(C)NC(=O)/C1=C\c1cc(C)n(-c2c(C)cccc2C)c1C | 1.47 | 72.3 |
| Oc1c(Cl)cc(Cl)cc1/C=C/c1ccc2cccc(O)c2n1 | 3.88 | – |
| CCO/C=C1\N=C(c2ccc(F)cc2)OC1=O | 1.4 | – |
| O=C1c2ccccc2C(Nc2ccc3c(c2)OCCO3)N1Cc1ccccc1 (stereo not given) | 1.34 | 97.1 |
| Cc1ccc(S(=O)(=O)N2CCN(C(C)C)CC2)cc1 | 1.36 | 90 |
| CC(C)(C)c1cc[n+](-c2[nH]c(=O)sc2/C=N/NC([S-])=Nc2ccccc2)cc1 | 2.28 | 93.9 |
| O=C(COC(=O)c1ccc(Br)o1)NCC1CCCO1 (stereo not given) | 1.34 | 95.9 |
| O=c1cc(-c2ccccc2)nc2cc(-c3ccco3)[nH]n12 | 1.49 | 95.3 |
| N#C/C(=C/c1ccc(-c2ccccc2)o1)c1nc(-c2cccs2)cs1 | 7.74 | – |
| CCNC(=S)N/N=C/c1sc(N2CCCCC2)nc1-c1cccs1 | 1.6 | 92.2 |
| Cc1cc(O)c(C(C)C)cc1NC(=O)c1cccc(Cl)c1 | 1.41 | 91.9 |
| O=C(Nc1cccc(Br)c1)c1ccccc1-c1ccccc1 | 1.33 | 95.2 |
| CCn1c(-c2csc(-c3ccccc3)n2)n[nH]c1=S | 1.19 | – |
